One molecule from the supplement of paper PMC8728848 can be followed below.

Some of the results follow.

What all share (experiment): glycan array binding signal (z-score within array); higher = stronger binding
Common to all, as to conditions: glycan notation: IUPAC condensed, linker removed

Assay [1] has as its target Gal(b1-4)GlcNAc(b1-2)[Gal(b1-4)GlcNAc(b1-6)]Man(a1-6)[Gal(b1-4)GlcNAc(b1-2)Man(a1-3)]Man(b1-4)GlcNAc(b1-4)[Fuc(a1-6)]GlcNAc. In short, it runs like this:
(§1)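 The binding signal is a Z-score computed within each array and averaged over linkers. Arrays of the same protein sequence at different concentrations or buffers were also averaged together. Data originate from 3228 arrays in the Consortium for Functional Glycomics database, kept only where the protein sequence was available.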

For assay [2], the target named is Gal(b1-4)GlcNAc(b1-2)[Gal(b1-4)GlcNAc(b1-6)]Man(a1-6)[GlcNAc(b1-4)][Gal(b1-4)GlcNAc(b1-2)Man(a1-3)]Man(b1-4)GlcNAc(b1-4)GlcNAc. In short, it runs like this: as §1
The target of assay [3] is Gal(b1-4)GlcNAc(b1-2)[Gal(b1-4)GlcNAc(b1-6)]Man(a1-6)[GlcNAc(b1-4)][Gal(b1-4)GlcNAc(b1-2)[Gal(b1-4)GlcNAc(b1-4)]Man(a1-3)]Man(b1-4)GlcNAc(b1-4)[Fuc(a1-6)]GlcNAc. In short, it runs like this: as §1
Assay [4] addresses Gal(b1-4)GlcNAc(b1-3)Gal(b1-3)GalNAc. In short, it runs like this: as §1
Assay [5] has as its target Gal(b1-4)GlcNAc(b1-3)Gal(b1-3)GlcNAc. In short, it runs like this:
as §1

The target of assay [6] is Gal(b1-4)GlcNAc(b1-3)Gal(b1-4)Glc. In outline: as §1
In assay [7] the target is Gal(b1-4)GlcNAc(b1-3)Gal(b1-4)GlcNAc. In outline:
as §1

The target of assay [8] is Gal(b1-4)GlcNAc(b1-3)Gal(b1-4)GlcNAc(b1-2)Man(a1-3)[Gal(b1-4)GlcNAc(b1-3)Gal(b1-4)GlcNAc(b1-2)Man(a1-6)]Man(b1-4)GlcNAc(b1-4)GlcNAc. In short, it runs like this:
as §1

In assay [9] the target is Gal(b1-4)GlcNAc(b1-3)Gal(b1-4)GlcNAc(b1-2)Man(a1-3)[Gal(b1-4)GlcNAc(b1-3)Gal(b1-4)GlcNAc(b1-2)Man(a1-6)]Man(b1-4)GlcNAc(b1-4)[Fuc(a1-6)]GlcNAc. In short, it runs like this:
as §1

Assay [10] addresses Gal(b1-4)GlcNAc(b1-3)Gal(b1-4)GlcNAc(b1-2)[Gal(b1-4)GlcNAc(b1-3)Gal(b1-4)GlcNAc(b1-6)]Man(a1-6)[Gal(b1-4)GlcNAc(b1-3)Gal(b1-4)GlcNAc(b1-2)Man(a1-3)]Man(b1-4)GlcNAc(b1-4)GlcNAc. In short, it runs like this:
as §1

The target of assay [11] is Gal(b1-4)GlcNAc(b1-3)Gal(b1-4)GlcNAc(b1-2)[Gal(b1-4)GlcNAc(b1-3)Gal(b1-4)GlcNAc(b1-6)]Man(a1-6)[Gal(b1-4)GlcNAc(b1-3)Gal(b1-4)GlcNAc(b1-2)Man(a1-3)]Man(b1-4)GlcNAc(b1-4)[Fuc(a1-6)]GlcNAc. In outline: as §1
In assay [12] the target is Gal(b1-4)GlcNAc(b1-3)Gal(b1-4)GlcNAc(b1-3)Gal(b1-4)GlcNAc. In outline:
as §1

Assay [13] deals with Gal(b1-4)GlcNAc(b1-3)Gal(b1-4)GlcNAc(b1-3)Gal(b1-4)GlcNAc(b1-2)Man(a1-3)[Gal(b1-4)GlcNAc(b1-3)Gal(b1-4)GlcNAc(b1-3)Gal(b1-4)GlcNAc(b1-2)Man(a1-6)]Man(b1-4)GlcNAc(b1-4)GlcNAc. In outline: as §1
The target of assay [14] is Gal(b1-4)GlcNAc(b1-3)Gal(b1-4)GlcNAc(b1-3)Gal(b1-4)GlcNAc(b1-2)Man(a1-3)[Gal(b1-4)GlcNAc(b1-3)Gal(b1-4)GlcNAc(b1-3)Gal(b1-4)GlcNAc(b1-2)Man(a1-6)]Man(b1-4)GlcNAc(b1-4)[Fuc(a1-6)]GlcNAc. In outline: as §1
The target of assay [15] is Gal(b1-4)GlcNAc(b1-3)Gal(b1-4)GlcNAc(b1-3)Gal(b1-4)GlcNAc(b1-2)[Gal(b1-4)GlcNAc(b1-3)Gal(b1-4)GlcNAc(b1-3)Gal(b1-4)GlcNAc(b1-6)]Man(a1-6)[Gal(b1-4)GlcNAc(b1-3)Gal(b1-4)GlcNAc(b1-3)Gal(b1-4)GlcNAc(b1-2)Man(a1-3)]Man(b1-4)GlcNAc(b1-4)[Fuc(a1-6)]GlcNAc. In outline: as §1
For assay [16], the target named is Gal(b1-4)GlcNAc(b1-3)Gal(b1-4)GlcNAc(b1-3)Gal(b1-4)GlcNAc(b1-3)Gal(b1-4)GlcNAc(b1-2)Man(a1-3)[Gal(b1-4)GlcNAc(b1-3)Gal(b1-4)GlcNAc(b1-3)Gal(b1-4)GlcNAc(b1-3)Gal(b1-4)GlcNAc(b1-2)Man(a1-6)]Man(b1-4)GlcNAc(b1-4)GlcNAc. In short, it runs like this: as §1
In assay [17] the target is Gal(b1-4)GlcNAc(b1-3)Gal(b1-4)GlcNAc(b1-3)Gal(b1-4)GlcNAc(b1-3)Gal(b1-4)GlcNAc(b1-2)Man(a1-3)[Gal(b1-4)GlcNAc(b1-3)Gal(b1-4)GlcNAc(b1-3)Gal(b1-4)GlcNAc(b1-3)Gal(b1-4)GlcNAc(b1-2)Man(a1-6)]Man(b1-4)GlcNAc(b1-4)[Fuc(a1-6)]GlcNAc. In outline: as §1
For assay [18], the target named is Gal(b1-4)GlcNAc(b1-3)Gal(b1-4)GlcNAc(b1-3)Gal(b1-4)GlcNAc(b1-3)Gal(b1-4)GlcNAc(b1-2)[Gal(b1-4)GlcNAc(b1-3)Gal(b1-4)GlcNAc(b1-3)Gal(b1-4)GlcNAc(b1-3)Gal(b1-4)GlcNAc(b1-6)]Man(a1-6)[Gal(b1-4)GlcNAc(b1-3)Gal(b1-4)GlcNAc(b1-3)Gal(b1-4)GlcNAc(b1-3)Gal(b1-4)GlcNAc(b1-2)Man(a1-3)]Man(b1-4)GlcNAc(b1-4)[Fuc(a1-6)]GlcNAc. In outline:
as §1

Assay [19] concerns the target Gal(b1-4)GlcNAc(b1-3)Gal(b1-4)GlcNAc(b1-3)Gal(b1-4)GlcNAc(b1-3)Gal(b1-4)GlcNAc(b1-3)Gal(b1-4)GlcNAc(b1-2)Man(a1-3)[Gal(b1-4)GlcNAc(b1-3)Gal(b1-4)GlcNAc(b1-3)Gal(b1-4)GlcNAc(b1-3)Gal(b1-4)GlcNAc(b1-3)Gal(b1-4)GlcNAc(b1-2)Man(a1-6)]Man(b1-4)GlcNAc(b1-4)GlcNAc. In outline: as §1
The target in assay [20] is Gal(b1-4)GlcNAc(b1-3)Gal(b1-4)GlcNAc(b1-3)Gal(b1-4)GlcNAc(b1-3)Gal(b1-4)GlcNAc(b1-3)Gal(b1-4)GlcNAc(b1-2)Man(a1-3)[Gal(b1-4)GlcNAc(b1-3)Gal(b1-4)GlcNAc(b1-3)Gal(b1-4)GlcNAc(b1-3)Gal(b1-4)GlcNAc(b1-3)Gal(b1-4)GlcNAc(b1-2)Man(a1-6)]Man(b1-4)GlcNAc(b1-4)[Fuc(a1-6)]GlcNAc. In outline:
as §1

Assay [21] deals with Gal(b1-4)GlcNAc(b1-3)Gal(b1-4)GlcNAc(b1-3)Gal(b1-4)GlcNAc(b1-3)Gal(b1-4)GlcNAc(b1-3)Gal(b1-4)GlcNAc(b1-2)[Gal(b1-4)GlcNAc(b1-3)Gal(b1-4)GlcNAc(b1-3)Gal(b1-4)GlcNAc(b1-3)Gal(b1-4)GlcNAc(b1-3)Gal(b1-4)GlcNAc(b1-6)]Man(a1-6)[Gal(b1-4)GlcNAc(b1-3)Gal(b1-4)GlcNAc(b1-3)Gal(b1-4)GlcNAc(b1-3)Gal(b1-4)GlcNAc(b1-3)Gal(b1-4)GlcNAc(b1-2)Man(a1-3)]Man(b1-4)GlcNAc(b1-4)[Fuc(a1-6)]GlcNAc. In short, it runs like this: as §1

The target in assay [22] is Gal(b1-4)GlcNAc(b1-3)Gal(b1-4)GlcNAc(b1-3)Gal(b1-4)GlcNAc(b1-3)Gal(b1-4)GlcNAc(b1-3)Gal(b1-4)GlcNAc(b1-3)Gal(b1-4)GlcNAc(b1-2)Man(a1-3)[Gal(b1-4)GlcNAc(b1-3)Gal(b1-4)GlcNAc(b1-3)Gal(b1-4)GlcNAc(b1-3)Gal(b1-4)GlcNAc(b1-3)Gal(b1-4)GlcNAc(b1-3)Gal(b1-4)GlcNAc(b1-2)Man(a1-6)]Man(b1-4)GlcNAc(b1-4)GlcNAc. In short, it runs like this: as §1
Assay [23] has as its target Gal(b1-4)GlcNAc(b1-3)Gal(b1-4)GlcNAc(b1-3)GalNAc. In outline: as §1

B1: PhoSpL (Pholiota squarrosa) (peptide)
chain: APVPVTKLVCDGDTYKCTAYLDFGDGRWVAQWDTNVFHTG
As to B1, the “glycan array binding signal (z-score)” value in assay [1] is 8.42; in assay [2], -0.499; in [3], 0.118; in [4] it was 0.26; in assay [5], 0.027; in assay [6], -0.094. Also, the “glycan array binding signal (z-score)” value in [7] was -0.286; in assay [8], 0.485; in assay [9], 1.94; in assay [10], 0.267; in [11], 0.945; in assay [12], -0.517. In addition, the “glycan array binding signal (z-score)” value in [13] was 0.178; in assay [14], 1.14; in assay [15], 0.552; in [16] it was -0.638; in [17], 0.769; in assay [18] it was 0.181. In addition, the “glycan array binding signal (z-score)” value in assay [19] was -1.09; in assay [20], 0.488; in [21] it was 0.718; in assay [22], -0.452; in assay [23], 0.431.
